About 17,000 (4.4%) of roughly 390,000 compounds were called active. The shares of active, inactive and inconclusive entries below differ from those in the screen. Calls come from the whole dose curve; as a rule, active = well fitted inhibition curve with a large enough effect; inconclusive = small, poorly fitted or top-dose-only effect; inactive = no such curve, though single readings can be large or run the other way. Potencies of inconclusive entries are doubtful fits and often do not repeat.
What follows are molecules tested against Lysine-specific demethylase 4A (Homo sapiens) (UniProt O75164) (assay: qHTS Assay for Inhibitors of JMJD2A-Tudor Domain). Conditions: AlphaScreen JMJD2A-Tudor / H3K4me3 peptide binding; series mostly up to 114 µM.
Chain of UniProt O75164 (O75164 whole entry, looked up, the tested form may be a part): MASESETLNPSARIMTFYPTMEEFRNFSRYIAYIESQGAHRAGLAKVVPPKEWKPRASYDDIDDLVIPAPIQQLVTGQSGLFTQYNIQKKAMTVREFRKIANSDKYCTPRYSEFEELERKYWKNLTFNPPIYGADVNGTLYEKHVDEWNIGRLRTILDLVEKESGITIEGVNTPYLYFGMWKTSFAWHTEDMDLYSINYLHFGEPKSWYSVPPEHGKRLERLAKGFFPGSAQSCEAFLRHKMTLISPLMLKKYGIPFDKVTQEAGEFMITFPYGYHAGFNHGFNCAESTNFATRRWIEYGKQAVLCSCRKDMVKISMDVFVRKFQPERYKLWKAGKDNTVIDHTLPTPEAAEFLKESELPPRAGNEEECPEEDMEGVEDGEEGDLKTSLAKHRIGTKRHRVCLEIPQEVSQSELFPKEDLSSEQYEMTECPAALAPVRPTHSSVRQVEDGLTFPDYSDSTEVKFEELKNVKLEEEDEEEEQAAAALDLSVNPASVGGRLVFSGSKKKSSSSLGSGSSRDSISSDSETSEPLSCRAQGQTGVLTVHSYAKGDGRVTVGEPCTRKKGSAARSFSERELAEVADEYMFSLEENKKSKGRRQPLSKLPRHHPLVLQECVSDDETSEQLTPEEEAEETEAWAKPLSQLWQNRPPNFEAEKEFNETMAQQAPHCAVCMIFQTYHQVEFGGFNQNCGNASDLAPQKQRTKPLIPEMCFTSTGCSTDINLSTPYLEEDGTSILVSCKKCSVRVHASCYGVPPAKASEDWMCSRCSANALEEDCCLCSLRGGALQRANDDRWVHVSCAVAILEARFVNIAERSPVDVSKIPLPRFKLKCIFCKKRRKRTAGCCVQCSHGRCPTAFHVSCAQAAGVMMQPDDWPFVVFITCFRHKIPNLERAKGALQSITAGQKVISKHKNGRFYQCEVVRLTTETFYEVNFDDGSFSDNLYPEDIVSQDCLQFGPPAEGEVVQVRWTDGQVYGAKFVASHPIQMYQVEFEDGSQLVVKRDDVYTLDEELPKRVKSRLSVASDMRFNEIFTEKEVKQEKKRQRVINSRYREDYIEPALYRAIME
In the case of Cc1ccc(-c2nn(-c3ccccc3)cc2/C=C2\SC(=S)N(CCCCCC(=O)O)C2=O)o1, the Potency is reported as active: 14.1 µM.
COc1ccc(N2CCN(CCCNC(=O)c3ccc(CS(=O)(=O)c4ccc(OC)cc4)o3)CC2)cc1 was tested, and the Potency was inconclusive: 56.2 µM [inhibitor, partial curve].
In the case of CCOc1ccc(S(=O)(=O)N2CCCC(C(=O)NC3CC3)C2)cc1Cl (configuration not stated), the Potency is reported as “inactive”.
In the case of Cc1cc(=O)oc2cc(OC(C)C(=O)Nc3ccc(N4CCOCC4)cc3)ccc12 (configuration not stated), the Potency is reported as active: 89.1 µM.
For Cc1ccc(S(=O)(=O)N2CCN(C(=O)COC(=O)CNC(=O)c3ccc(Cl)cc3Cl)CC2)c(C)c1, the Potency was active: 25.1 µM.
With COc1cc(NC(=O)N2c3ccccc3Sc3ccccc32)cc(OC)c1 the Potency was “inactive”.
For Cc1ncc(CO)c(/C=N/Nc2ccc(C(F)(F)F)cn2)c1O, the Potency was inconclusive: 12.6 µM [inhibitor, full curve].
In the case of Cc1c(C)n(Cc2ccc(Cl)cc2)c2ccc(C(=O)NCCN3CCOCC3)cc12, the Potency is reported as inconclusive: 100 µM [inhibitor, single point].
With COc1cc(-c2n[nH]c(=S)n2-c2ccccc2C(F)(F)F)cc(OC)c1OC the Potency was inconclusive: 89.1 µM [inhibitor, single point].
With Nn1cnnc1N/N=C/c1cc(Br)cc(Br)c1O the Potency was active: 89.1 µM.
For Cc1cc(NC(=S)N(CCCN2CCOCC2)Cc2ccco2)ccc1Cl, the Potency was inconclusive: 56.2 µM [inhibitor, partial curve].
For CCC1=NN2C(=N)/C(=C\c3cccn3-c3ccc(OC)cc3)C(=O)N=C2S1, the Potency was active: 79.4 µM.
CCc1ccc2c(c1)C(=O)C(=O)N2CC(=O)Nc1ccc(NC(=O)c2ccccn2)cc1 was tested, and the Potency was inconclusive: 28.2 µM [inhibitor, partial curve].
O=C1CCCC2=C1C(c1ccccc1)C1C(=O)c3ccccc3C1=N2 (configuration not stated) was tested, and the Potency was inconclusive: 14.1 µM [inhibitor, partial curve].
In the case of CC(=O)c1c(C)oc2c1cc(NS(=O)(=O)c1ccc(Br)cc1)c1ccccc12, the Potency is reported as “inactive”.
COc1cc(OC)cc(-c2c(C#Cc3ccsc3)c3cc(-c4cccc5[nH]cc(C=O)c45)ccc3n2C)c1 was tested, and the Potency was “inactive”.
O=C(NCCCCNCCCNC(=O)c1ccccc1)c1ccccc1 was tested, and the Potency was “inactive”.
In the case of CNC(=S)N(CCc1c(C)[nH]c2ccc(OC)cc12)Cc1cc(OC)c(OC)c(OC)c1, the Potency is reported as inconclusive: 50.1 µM [inhibitor, partial curve].
With CCc1ccc(/C=C2\SC(=S)N(CCC(=O)NCCCN3CCOCC3)C2=O)cc1 the Potency was inconclusive: 63.1 µM [inhibitor, partial curve].
CC(=O)c1c(C)[nH]c(C(=O)Nc2cc(C)cc(C)c2)c1C was tested, and the Potency was inconclusive: 63.1 µM [inhibitor, partial curve, poor fit].
For CC(C)n1cnc2cc(NCc3nc4ccccc4n3C)ccc21, the Potency was inconclusive: 79.4 µM [inhibitor, partial curve].
With CC1=C[C@H](C)[C@H](c2c(F)cccc2Cl)CC1=O the Potency was “inactive”.
With CCOc1ccccc1CNCc1cccn1-c1nnc(N2CCN(c3ccccc3)CC2)s1 the Potency was inconclusive: 50.1 µM [inhibitor, partial curve].
O=C(O)CCc1ccc(S(=O)(=O)Nc2cc(C(F)(F)F)ccc2N2CCCC2)cc1 was tested, and the Potency was inconclusive: 50.1 µM [inhibitor, partial curve].
In the case of COc1cc(C2C(C(=O)c3ccco3)=C(O)C(=O)N2CCc2ccccc2)ccc1O (configuration not stated), the Potency is reported as inconclusive: 89.1 µM [inhibitor, single point].
COC(=O)/C(C#N)=C/c1c(N2CCN(c3cccc(Cl)c3)CC2)nc2c(C)cccn2c1=O was tested, and the Potency was inconclusive: 35.5 µM [inhibitor, partial curve, poor fit].
With COc1ccc(N2CCN(CCC3Oc4cc([N+](=O)[O-])ccc4NC3=O)CC2)cc1 (configuration not stated) the Potency was inconclusive: 14.1 µM [inhibitor, full curve].
In the case of CC(=O)c1ccc(-n2c(CCC(=O)O)ccc2-c2ccc(Br)cc2)cc1, the Potency is reported as inconclusive: 50.1 µM [inhibitor, partial curve].
Cc1ccc(C)c(NC(=S)NCc2ccc3[nH]c4c(c3c2)CCCC4)c1 was tested, and the Potency was active: 50.1 µM.
In the case of CN1CCS/C1=C/C=C1\SC(=S)N(CC(=O)O)C1=O, the Potency is reported as inconclusive: 79.4 µM [inhibitor, partial curve].
With CCn1cc(CN2CCCC(C(=O)Nc3cccc(-c4cc5ccccc5[nH]4)c3)C2)cn1 (configuration not stated) the Potency was inconclusive: 56.2 µM [inhibitor, partial curve, poor fit].
In the case of O=C(CCN1C(=O)/C(=C/c2ccc(Cl)cc2)SC1=S)Nc1ccc(C(=O)O)cc1, the Potency is reported as inconclusive: 50.1 µM [inhibitor, partial curve].
In the case of Cc1ccccc1CC(=O)Nc1ccc2c(C)cc(=O)oc2c1, the Potency is reported as “inactive”.
With CN(C)Cc1ccccc1C(O)(c1ccccc1)c1ccccc1 the Potency was inconclusive: 31.6 µM [inhibitor, partial curve].
In the case of Cc1ccccc1C(=O)Nc1nnc(-c2ccncc2)o1, the Potency is reported as inconclusive: 70.8 µM [inhibitor, partial curve, poor fit].
In the case of COc1ccccc1/C=C/C(=C1/C(=O)N(c2ccccc2)N=C1C)c1ccc(C)cc1, the Potency is reported as active: 2.82 µM.
In the case of CCNc1nc(NCC)n2c(SCC(=O)Nc3ccc(Br)cc3F)nnc2n1, the Potency is reported as inconclusive: 50.1 µM [inhibitor, partial curve].
In the case of CC(C)(C)c1ccc(S(=O)(=O)N2CCN(Cc3cc4c(cc3O)OCO4)CC2)cc1, the Potency is reported as inconclusive: 11.2 µM [inhibitor, full curve, poor fit].
With O=C(C[n+]1cc(Br)cc2ccccc21)c1ccc(Br)cc1 the Potency was inconclusive: 70.8 µM [inhibitor, partial curve].
In the case of Cc1ccc2c(c1)-c1ncc(C(=O)c3ccccc3O)cc1CO2, the Potency is reported as inconclusive: 12.6 µM [inhibitor, partial curve].
In the case of Cc1cc(C)cc(NC(=O)CSc2nc(-c3ccccc3)c3cc(F)ccc3n2)c1, the Potency is reported as “inactive”.
For CCOc1cc(/C=N/NC(=O)COc2ccc(Cl)cc2)ccc1OS(=O)(=O)c1ccccc1, the Potency was “inactive”.
Note: nearly all actives have a fitted effect of over 50% in size.
Potency is the fitted concentration of half-maximal effect; tags give direction and shape of the fitted curve.
